Data from the supplement of paper PMC10338343.
± gives the standard deviation. In all, about 6,600 sequences were measured (“pre-steady-state target cleavage rate”: median about 0.07, highest 2% from about 0.72 on). The list shows a part of the results, in another mix than the full data.

test system: MIWI (PIWIL1) piRISC loaded with Kctd7 piRNA (30 nt); assay: pre-steady-state target cleavage rate (min^-1); MIWI and MILI are mouse PIWI proteins and EfPiwi is from a freshwater sponge; tags in brackets are library labels; higher = faster piRNA-guided slicing of the target; conditions: guide: Kctd7 piRNA 5'p-UGUUAAUCUCUCAGAGAAGGUGACAGUGAU; auxiliary factor: 500 nM mouse GTSF1
Procedure, shortened: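 In Cleave-'n-Seq, a transcribed, DNA-blocked target RNA library (0.1 nM) was combined with 1 nM active affinity-purified piRISC bearing one synthetic guide, with or without 500 nM GTSF1 partner protein. Reactions ran in HEPES–potassium acetate buffer at 33 °C for 0–8 or 0–960 min. Uncleaved targets were sequenced and normalised to depth and to weakly complementary targets, three trials were pooled, and k3 was capped at 0.0001 min^-1. The pre-steady-state cleavage rate was obtained by fitting a burst-and-steady-state model.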

| Sequence | pre-steady-state target cleavage rate |
| --- | --- |
| UAGUCUGUCACCUUCUCUGAGAGAUAUACA | 0.21 ± 0.026 |
| UUCACUGUCACCUUCUCUCAGAGAUAAACA | 0.0453 ± 0.0071 |
| UAGACUGUCUGCUUCUCUGAGAGAUUAAGA | 0.0881 ± 0.018 |
| AUCUCUGUCACCUUCUCUGAGAGAUUUACA | 0.379 ± 0.048 |
| UACACUGUCACCUUCUCUGACACAUUAACA | 0.0788 ± 0.0095 |
| UAGUGUGUCACCUUCAGUGAGAGAUUUUGA | 0.0067 ± 0.0051 |
| UACACUGUCACCUUCUCUGAGAGUUUAAGA | 0.403 ± 0.095 |
| UAGUCUGUCACCUUCACUGAGAGUUUAACA | 0.319 ± 0.057 |
| UUCACUGUCACCAACUCUGAGAGAUUAAGA | 0.125 ± 0.024 |
| UAGUGAGUCACCUUCUGUGAGAGAUUUUGA | 0.012 ± 0.0055 |
| UAGUGUGUCACCUACUCUGUGAGAUUAACA | 0.139 ± 0.013 |
| UUGACUGUCACCUUCUCUGAGAGAUUAACA | 0.777 ± 0.042 |
| UAGUGAGAGUCCUUCUCUGAGAGAUUAAGA | 0.0217 ± 0.0053 |
| UAGUGACUCACAUUCUCUGAGAGAUUAACA | 0.168 ± 0.0098 |
| UACACUGUCACCUUCUGUGACAGAUUAACA | 0.0217 ± 0.0069 |
| UUCACUGUCACCUUCUCUGAGAGAUUAACA [g2:g29:cont:t1A] | 0.717 ± 0.03 |
| AACACUGUCACCUUCUCUGUGAGAUUAACA | 0.291 ± 0.015 |
| UAGUGUGUCACCUUCUCUGAGAGCUUAACA | 0.245 ± 0.027 |
| UACACUGUCAGCUUCUGUGAGAGAUUAACA | 0.373 ± 0.032 |
| UACUCUGUCUCCUUCUCUGAGAGAUUAACA | 0.588 ± 0.044 |
| UAGUGACAGUGGAAGUCUGAGAGUUAAACA | < 0.0001 |
| AUCACUGUCACCUUCUGCUGAGAGAUUAACA | 0.215 ± 0.061 |
| UUCACUGUCACCUUCUUGAGAGAUUAACA | 0.0655 ± 0.018 |

| Sequence | pre-steady-state target cleavage rate |
| --- | --- |
| UAGUGACACAGCUUCUGUGAGAGAUUAACA | 0.0673 ± 0.0097 |
| UAGUGUGUCACCUUCUCUGACAGAAUAACA | 0.0395 ± 0.0078 |
| UAGUGAGUCACCUUGAGUGAGAGAUUAACA | 0.00539 ± 0.0029 |
| UAGACUGACACCUUCUCUGAGACAUUAACA | 0.122 ± 0.012 |
| UACACUGUCACGCUUCUCUGAGAGAUUAACA | 0.463 ± 0.034 |
| UAGUGACAGACCUUCUCUGACAGAUUUACA | 0.00592 ± 0.0031 |
| UAGUCUGUCACCUUCUCUGAGUGAUAAACA | 0.0376 ± 0.0083 |
| UAGUGACACACCUUCUCUGUGUGAUUAACA | 0.00663 ± 0.006 |
| UAGUGACUCACCUUCUCUGAGCGAUUAACA | 0.118 ± 0.013 |
| UAGACUUCACCUUCUCUGAGAGAUUAACA | 0.576 ± 0.04 |
| UAGUCUGUCACGUUCUCUGAGAGUUUAACA | 0.107 ± 0.013 |
| UAGUGACUCACCUUCUCUGAGAGAUUUACA | 0.274 ± 0.035 |
| UAGUGAGUCACCUUCUCUGAGACUUUUUGA | 0.0215 ± 0.0082 |
| UACACUGACACCUUCUCUGAGAGAUUAAGA | 0.104 ± 0.026 |
| UAGUGUGUCACCUUCUCUGAGAGUAUAUGA | 0.0145 ± 0.0066 |
| UUCACUGUCACCAUCACUGAGAGAUUAACA | 0.462 ± 0.026 |
| AUGACUGUCACCUACUCUGAGAGAUUAACA | 0.736 ± 0.042 |
| UAGACUGUCACGAUCUCUGAGAGAUUAAGA | 0.034 ± 0.0078 |
| UAGUGACACACCUCCUCUGAGAGAUUAACA | 0.53 ± 0.024 |
| UAGUGACACACGUUCUCUGAGAGAUAAACA | 0.0839 ± 0.011 |
| AUCUCUGUCAGCUUCUCUGAGAGAUUAACA | 0.678 ± 0.032 |
| UACACUGUCACCAAGUCUGAGAGAUUAAGA | 0.0266 ± 0.012 |
| UAGUGUCAGACCUUCUCUGAGAGAUUAUGA | 0.00374 ± 0.0036 |

| Sequence | pre-steady-state target cleavage rate |
| --- | --- |
| UAGUGACAGUGCUUCUCUAAGAGAUUAACA | 0.00732 ± 0.0026 |
| UAGUGACACACCUUCUCAGAGAGUUUAACA | 0.0516 ± 0.013 |
| UAGUGACAGUGGAAGAGACAUAGAUUAACA | < 0.0001 |
| UAGUCUGUCACCUUCUCUGAGAGAUUACACA | 0.239 ± 0.031 |
| AUCAGUGUCACCUUCUCUGAGAGAUUAUCA | 0.253 ± 0.042 |
| UAGUGACACUCCUUCUCUGAGAGAUUAUCA | 0.0975 ± 0.017 |
| UAGUGACACGACCUUCUCUGAGAGAUUAACA | 0.302 ± 0.021 |
| UAGUGACUCACCUUCUCUGAGUCAUUAACA | 0.00987 ± 0.0037 |
| UAGUGAGUCACCUUCUCUGAGUGAUUAAGA | 0.00713 ± 0.0034 |
| UACACUGUCACCUUCUCUGAGAGAUUCAACA | 0.465 ± 0.084 |
| AUCACUCUCACCUUCACUGAGAGAUUAACA | 0.364 ± 0.022 |
| UAGUGACAGACCUUCUCUGAGAGAUUAACU [g2:g21:cont:t1U] | 0.0886 ± 0.0091 |
| AUCACUGUCACCUUCUCUGAGACAUAAACA | 0.0216 ± 0.0092 |
| UUCACAGUCACCUUCUCUGAGUGAUUAACA | 0.0427 ± 0.0083 |
| UAGUGAGUCACCUUCUCUGAGAGAUUAUACA | 0.345 ± 0.054 |
| UAGUCUGUCUCCUUCUCUGAGAGAUUAUCA | 0.207 ± 0.029 |
| UAGUGACACACCUUCUCUGAGAGUUUAAGA | 0.0183 ± 0.0078 |
| AUCACUGUCUGGUUCUCUGAGAGAUUAAGA | 0.0372 ± 0.0069 |
| UAGUGAGUCACCUUGUCUGAGAGAUUUUGA | 0.0167 ± 0.0078 |
| UAGUGACACACCUUCUCUGUGAGAUUUUGA | 0.00561 ± 0.0036 |
| UAGUGACACACGUUCUCUGAGAGAUUAUCA | 0.1 ± 0.018 |
| UAGUCUGUCCCUUCUCUGAGAGAUUAACA | 0.585 ± 0.047 |
| UAGUCCUGUCACCUUCUCUGAGAGAUUAACA | 0.67 ± 0.046 |

| Sequence | pre-steady-state target cleavage rate |
| --- | --- |
| UAGACUGUCACCUUCUCUGAGUGAUUUACA | 0.00574 ± 0.0021 |
| UACACUGUCACCUUGACUGAGAGAUUAUGA | 0.00988 ± 0.0053 |
| UAGUGACAGUGGAAGAGAGAGAGAUGAACA | < 0.0001 |
| UAGUGUGUCACCUUCUCUGAGAGAAUAUGA | 0.0376 ± 0.015 |
| UAGUGUGUCACCAUCUCUGAGAGAUAUUGA | 0.00443 ± 0.0043 |
| UAGUGACUCACCUUCUCUGAGAGAUUAGACA | 0.215 ± 0.047 |
| UAGUGACAGUCCUUCUCUGAGAGAUGAACA | 0.00623 ± 0.0023 |
| UAGUGACAGUGGAAGAGUGAGUCUUUAACA | < 0.0001 |
| UAGUGUGUCACCUUCUCUGAGAGAUUAACA [g2:g25:cont:t1A] | 0.628 ± 0.03 |
| UAGUGACACACCUUGUCUGACAGAUUAACA | 0.19 ± 0.046 |
| UAGUGUGUCACCUUCACUGAGAGAUUUUGA | 0.0636 ± 0.025 |
| UAGUGACUCACCUUUCUGAGAGAUUAACA | 0.0534 ± 0.0082 |
| UAGUGUGUCUCCUUCUCAGAGAGAUUAACA | 0.127 ± 0.016 |
| UAGUCUGUGACCUUGUCUGAGAGAUUAACA | 0.187 ± 0.022 |
| UAGUGUCUCACCUUCUCUGAGAGUUUAACA | 0.488 ± 0.077 |
| UAGUGACAGACCGUUCUCUGAGAGAUUAACA | 0.00991 ± 0.0025 |
| UAGUCUGUCACCUUCUGUGAGAGAUAAACA | 0.0539 ± 0.0081 |
| UAGUCUGUCACCUUCUCUGAGAGUAUUAACA | 0.462 ± 0.051 |
| UUCACUGUCUGCUUCUCUGAGAGAUUAACA | 0.639 ± 0.038 |
| UUCUCUGUCACCUUCUCUGAGAGAUAAACA | 0.235 ± 0.031 |
| UAGUGACUCAGCUUCUCUGUGAGAUUAACA | 0.0335 ± 0.005 |
| UUCACUGUCACCUUCUCUGAGAGAUUGAACA | 0.368 ± 0.063 |
